“And” between values parts separate entries of the source, which are not always exact repeats. Equal values may be shown once. Out of some 94,000 compounds screened, about 2,100 (2.2%) were called active. The inconclusive results got no clear call from the source; some entries with a clear call stand among them for comparison. No stated cut-off is given here; in the data, active means activity change below about -80%; inconclusive means no clear call, values can overlap the other calls; inactive means above that.
test: P. falciparum Dd2 growth inhibitors, primary screen, SYBR Green fluorescence, single dose replicates (AID 1159554); details: 72 h, at 10 µM, stronger effect = lower value

SMILES | activity change
COc1ccccc1C#Cc1ccc([C@@H]2[C@@H](CO)N(C(=O)C3CCCCC3)[C@H]2C#N)cc1 | inconclusive: -85.1%
C[C@H]1CCCCO[C@H](CN(C)C(=O)C2CCCCC2)[C@@H](C)CN([C@@H](C)CO)C(=O)c2cc(NC(=O)Nc3ccc(C(F)(F)F)cc3)ccc2O1 | inconclusive: -81.1%
C[C@H](CO)N1C[C@H](C)[C@H](CN(C)C(=O)Nc2ccc3c(c2)OCO3)Oc2cc(C#Cc3cccnc3)ccc2S1(=O)=O | inconclusive: -81.2%
C[C@H](CO)N1C[C@H](C)[C@H](CN(C)S(=O)(=O)c2ccccc2)Oc2ncc(-c3cc4ccccc4o3)cc2C1=O | inconclusive: -81.1%
COc1cccc(S(=O)(=O)N(C)C[C@@H]2Oc3cc(C#CCC(C)C)ccc3S(=O)(=O)N([C@@H](C)CO)C[C@H]2C)c1 | inconclusive: -82.7%
COc1ccc2c3c([nH]c2c1)[C@@H](CO)N(Cc1ccc(F)cc1)CC31CN(Cc2ccccn2)C1 | inconclusive: -80.4%
CCC(=O)N1CC2(CN(C(=O)Nc3ccccc3F)C2)c2c([nH]c3cc(OC)ccc23)[C@H]1CO | inconclusive: -82.5%
O=C(Nc1ccc(F)cc1)N1CCCCN2[C@@H](CO)[C@H](c3ccc(C#Cc4ccccc4)cc3)[C@@H]2C1 | inconclusive: -81.1%
C[C@H](CO)N1C[C@H](C)[C@H](CN(C)Cc2ccc(C(F)(F)F)cc2)OCCCC[C@H](C)Oc2ccc(NC(=O)CCCN(C)C)cc2C1=O | active: -86.2%
COc1ccc(C#Cc2ccc3c(c2)[C@H]2[C@H](CCN2C(=O)C2CCC2)[C@H](CO)N3)cc1 | inconclusive: -82.8%
C[C@H]1CN([C@@H](C)CO)C(=O)c2cccc(NC(=O)c3nc4ccccc4s3)c2O[C@H]1CN(C)Cc1ccc(C(F)(F)F)cc1 | inconclusive: -80.9%
Cc1ccc(S(=O)(=O)N(C)C[C@H]2OCCCC[C@@H](C)Oc3ccc(NC(=O)Nc4ccc(F)cc4)cc3C(=O)N([C@@H](C)CO)C[C@@H]2C)cc1 | inconclusive: -80.7%
COc1ccc(S(=O)(=O)N(C)C[C@@H]2OCCCC[C@H](C)Oc3ccc(NC(=O)Cc4ccccc4)cc3C(=O)N([C@@H](C)CO)C[C@H]2C)cc1 | inconclusive: -80.3%
COc1ccc(NC(=O)Nc2ccc3c(c2)CC(=O)N([C@@H](C)CO)C[C@@H](C)[C@H](CN(C)Cc2ccc(Oc4ccccc4)cc2)O3)cc1 | inconclusive: -80.5%
COc1ccc(NC(=O)Nc2cccc3c2O[C@H](CN(C)C(=O)Nc2cccc4ccccc24)[C@H](C)CN([C@H](C)CO)C3=O)cc1 | inconclusive: -80.1%
CN(C)C(=O)C[C@@H]1C[C@@H]2c3cc(NC(=O)Nc4ccccc4F)ccc3O[C@@H]2[C@@H](CO)O1 | inactive: 12.5%
CC(C)(C)[S@@](=O)N1Cc2cc(C(=O)NCCN3CCCCC3)nc(-c3cccc(-c4ccc(C#N)cc4)c3)c2[C@H]1CCO | inconclusive: -83.7%
COCC(=O)N1CCC2(CC1)CN(Cc1cccc(OC)c1)[C@H](CO)c1[nH]c3cc(OC)ccc3c12 | inconclusive: -80.4%
COc1ccccc1NC(=O)N1C[C@@H]2N[C@H](C1)C2c1ccc(/C=C/c2ccccc2)cc1 (some centres undefined) | inconclusive: -80.8% and inconclusive: -80.2%
C[C@@H]1CN([C@H](C)CO)C(=O)c2cc(C#Cc3ccccc3)cnc2O[C@H]1CN(C)C(=O)CN(C)C | inconclusive: -80.1%
CN1CCN(C(=O)C[C@@H]2CC[C@H]3[C@@H](COC[C@H](O)CN3C(=O)C3CCOCC3)O2)CC1 | inactive: 21.4%
COc1ccc(S(=O)(=O)Nc2ccc3c(c2)C(=O)N([C@H](C)CO)C[C@@H](C)[C@@H](CN(C)S(=O)(=O)c2ccccc2)OCCCC[C@@H](C)O3)cc1 | inconclusive: -82.3%
C[C@@H]1CN([C@@H](C)CO)C(=O)c2cc(NC(=O)c3ccccc3)ccc2O[C@@H](C)CCCCO[C@H]1CN(C)S(=O)(=O)c1ccc(F)cc1 | inconclusive: -80.9%
CC=Cc1ccc2n(c1=O)C[C@H]1[C@H](CO)[C@@H](C(=O)N3CCC(Cc4ccccc4)CC3)N(CCC)[C@@H]21 (mixture of isomers) | inconclusive: -81.3%
N#C[C@@H]1[C@H](c2ccccc2-c2cccc(F)c2)[C@@H](CO)N1C(=O)C1CCCC1 | inconclusive: -82%
COc1ccc(CN(C)C[C@@H]2OCCCC[C@H](C)Oc3ccc(NC(=O)Nc4ccc(F)cc4)cc3C(=O)N([C@@H](C)CO)C[C@@H]2C)cc1 | inconclusive: -80.2%
CC=Cc1ccc2n(c1=O)C[C@@H]1[C@@H](CO)[C@H](C(=O)N3CCC(Cc4ccccc4)CC3)N(CCC)[C@H]21 (mixture of isomers) | inconclusive: -81.4%

SMILES | activity change
Cc1cc(C(=O)Nc2cccc3c2O[C@@H](CN(C)Cc2ccc(C(=O)Nc4ccccc4N)cc2)[C@@H](C)CN([C@H](C)CO)C3=O)n(C)n1 | active: -84.8%
C[C@H](CO)N1C[C@H](C)[C@@H](CN(C)Cc2ccc(Oc3ccccc3)cc2)Oc2ccc(NS(=O)(=O)c3cn(C)cn3)cc2CC1=O | active: -90.2%
CC(C)(C)[S@@](=O)N1Cc2cc(C(=O)N[C@@H]3CCN(Cc4ccccc4)C3)nc(-c3cccc(-c4cccnc4)c3)c2[C@H]1CCO | inconclusive: -80.4%
C[C@@H]1CN([C@@H](C)CO)S(=O)(=O)c2ccc(C3=CCCC3)cc2O[C@H]1CN(C)S(=O)(=O)c1ccc(F)cc1 | inactive: -59.3%
CO[C@@H]1CN(C)C(=O)c2ccc(NC(=O)C3CC3)cc2OC[C@@H](C)N(Cc2cccc(F)c2)C[C@H]1C | inconclusive: -80.7%
COc1ccc2c3c(n(C)c2c1)[C@@H](CO)N(CC1CCCCC1)CC31CCN(C(=O)CN(C)C)CC1 | inconclusive: -80.6%
COc1ccccc1CN(C)C[C@H]1OCc2ccccc2-c2c(n(C)c3ccccc23)C(=O)N([C@@H](C)CO)C[C@@H]1C | inconclusive: -80.9%
N#Cc1cccc(-c2ccc3c(c2)[C@H]2[C@H](CCN2Cc2ccncc2)[C@@H](CO)N3)c1 | active: -88.6%
CC(C)N(C[C@H]1N[C@H](CO)[C@@H]1c1ccc(C2=CCCCC2)cc1)C(=O)CN(C)C | inconclusive: -81.7%
N#Cc1ccc(-c2ccc(C3[C@@H]4CN(C(=O)Nc5ccc(C(F)(F)F)cc5)C[C@H]3N4)cc2)cc1 (some centres undefined) | inconclusive: -81.2%
Cc1ccc(S(=O)(=O)N(C)C[C@@H]2OCCCC[C@H](C)Oc3ccc(NC(=O)Nc4ccc(C(F)(F)F)cc4)cc3C(=O)N([C@H](C)CO)C[C@H]2C)cc1 | inconclusive: -82.2%
C[C@H]1CN([C@@H](C)CO)C(=O)c2c(c3ccccc3n2C)-c2ccccc2CO[C@@H]1CN(C)C(=O)c1cc(Cl)cc(Cl)c1 | inconclusive: -81.7%
COc1ccc(NC(=O)N(C)C[C@H]2OCCCC[C@@H](C)Oc3ccc(NC(=O)Nc4ccc(F)cc4)cc3C(=O)N([C@H](C)CO)C[C@H]2C)cc1 | inconclusive: -80.2%
COc1ccc(S(=O)(=O)Nc2ccc3c(c2)C(=O)N([C@@H](C)CO)C[C@H](C)[C@@H](CN(C)Cc2ccc(C(F)(F)F)cc2)OCCCC[C@@H](C)O3)cc1 | inconclusive: -82.1%
C[C@@H]1CCCCO[C@H](CN(C)C(=O)Cc2ccccc2)[C@@H](C)CN([C@@H](C)CO)C(=O)c2cc(NC(=O)Nc3ccc(F)cc3)ccc2O1 | inconclusive: -82.6%
CN(C)C(=O)[C@H]1[C@H](CO)[C@H]2Cn3c(cccc3=O)[C@H]2N1C(=O)C1CCCCC1 | inactive: 11%
COc1ccccc1NC(=O)N1CCCCN2[C@@H](CO)[C@H](c3ccc(C#Cc4ccccc4)cc3)[C@@H]2C1 | inconclusive: -80.8%
O=C(Nc1cccc(F)c1)N1CCCCN2[C@@H](CO)[C@H](c3ccc(C#Cc4ccccc4)cc3)[C@@H]2C1 | inconclusive: -80.4%
C[C@@H]1CN([C@@H](C)CO)S(=O)(=O)c2ccc(C#Cc3ccccc3)cc2O[C@@H]1CN(C)C(=O)Cc1ccccn1 | inconclusive: -81%
COc1ccccc1S(=O)(=O)N(C)C[C@@H]1OCc2ccccc2-c2c(n(C)c3ccccc23)C(=O)N([C@@H](C)CO)C[C@@H]1C | active: -92.6%
COc1ccc2c3c([nH]c2c1)[C@@H](CO)N(Cc1cccc(F)c1)CC31CN(Cc2ccccn2)C1 | inconclusive: -82.2%
C[C@@H]1CN([C@H](C)CO)C(=O)c2cc(NC(=O)Cc3ccccc3)ccc2O[C@@H]1CN(C)Cc1ccc(C(=O)Nc2ccccc2N)cc1 | active: -85.1%
C[C@@H]1CN([C@@H](C)CO)C(=O)c2cccc(NC(=O)Nc3ccccc3)c2O[C@@H]1CN(C)C(=O)Nc1ccc2c(c1)OCO2 | active: -85.1%
N#C[C@@H]1[C@@H](c2ccc(C3=CCCCC3)cc2)[C@@H](CO)N1C(=O)NC1CCCC1 | inactive: -44.2%
Cc1ccc(S(=O)(=O)Nc2ccc3c(c2)C(=O)N([C@H](C)CO)C[C@H](C)[C@@H](CN(C)C(=O)Nc2c(C)noc2C)OCCCC[C@H](C)O3)cc1 | inactive: 13.9%
CCCNC(=O)N1[C@H](C#N)[C@H](c2ccc(-c3cccc(OC)c3)cc2)[C@@H]1CO | inconclusive: -84.8%
C[C@@H]1CN([C@H](C)CO)C(=O)c2c(c3ccccc3n2C)-c2ccccc2CO[C@@H]1CN(C)C(=O)c1ccncc1 | inactive: -0.226%

Source: PubChem BioAssay AID1159554 (Broad Institute, 2015)
